The list shows a part of the results.

The text below walks through data of article PMC7819943, “Rice protein-binding microarrays: a tool to detect cis-acting elements near promoter regions in rice”.

The target of the assay is T1, OsWOX13 (Oryza sativa, UniProt Q5QMM3 1-267).
T1 sequence: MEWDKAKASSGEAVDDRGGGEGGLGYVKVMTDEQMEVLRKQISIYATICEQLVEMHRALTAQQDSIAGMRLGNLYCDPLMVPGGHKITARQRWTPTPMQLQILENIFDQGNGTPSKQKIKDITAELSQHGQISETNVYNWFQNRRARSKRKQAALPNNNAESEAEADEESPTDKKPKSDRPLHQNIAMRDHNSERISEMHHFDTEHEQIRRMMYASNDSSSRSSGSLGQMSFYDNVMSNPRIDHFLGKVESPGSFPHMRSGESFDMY
The experiment in a line: protein-binding microarray (RPBM); PBS, 2% BSA, 51.3 ng/ul salmon testes DNA, 50 uM zinc acetate, 200 nM TF, 25 C, 1 h; high values mean tight binding. The note with it: protein: recombinant; tags: N-terminal polyhistidine and DsRed monomer fusion (pET32a); label: CyDye5-dUTP incorporated in the synthesized complementary strand; 3' TTTTT single-stranded linker to array surface; dsDNA, one strand shown. An outline of the steps: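 Transcription factors, each fused N-terminally to a polyhistidine tag and DsRed, were expressed in E. coli BL21-CodonPlus and purified on Ni–NTA. A custom Agilent array was made double-stranded by primer extension with Cy5-dUTP and blocked with 2% BSA. It was incubated with 200 nM protein in PBS, 2% BSA, salmon testes DNA and 50 µM zinc acetate at 25 °C for 1 h, then washed. The binding signal is per-feature fluorescence intensity (arbitrary units) read on an Axon 4000B scanner.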
Take “GCATATTTAATTTGTTATTCTCCATTTATATTTCCTCAATCGGAGTCACCTAGTGCAG”: the binding signal is 7150 fluorescence intensity (a.u.).
To “ACTTATCTGTGATTTGTTAATCTTCTGTTAAACAATTTGCCGGAGTCACCTAGTGCAG” belongs 21000 fluorescence intensity (a.u.); to “ATTGATAGAGAGAGAGGCGGACCTCCCTGACCTTATCGGCCGGAGTCACCTAGTGCAG”, 11300 fluorescence intensity (a.u.); to “AAGATTGCTTTGAGATTAGTGTTAGACTAGGGCCGTGTTTCGGAGTCACCTAGTGCAG”, 24700 fluorescence intensity (a.u.).
To “GCCAAACCTGATTTGAGCTACGGACCAAAGTTAGCTTGCCCGGAGTCACCTAGTGCAG” belongs 3960 fluorescence intensity (a.u.); to “AAGTAAATCAACGTCCGTGATCTGCGCACGTCACCGGCTTCGGAGTCACCTAGTGCAG”, 5340 fluorescence intensity (a.u.); to “CAGCCACCAATTAATCTCTGAGTCCTTATTAACGAATAACCGGAGTCACCTAGTGCAG”, 3600 fluorescence intensity (a.u.).
To “AGTATGTAATAATTAAAACTCAATCAATCAAATGTTAATACGGAGTCACCTAGTGCAG” belongs 14400 fluorescence intensity (a.u.).
Consider “TAATTAATTAAATTTTAACTATTGCAAACTTAACAAATGTCGGAGTCACCTAGTGCAG”, for which the binding signal was 49700 fluorescence intensity (a.u.).
To “AAAGGGTAAATTGGAACCATGCCATTATAATTTTGCAAAGCGGAGTCACCTAGTGCAG” belongs 9510 fluorescence intensity (a.u.); to “CTTAGTGATTGCACTTATCATTGACGGTCCTGCGGTAATCCGGAGTCACCTAGTGCAG”, 19100 fluorescence intensity (a.u.).
To “ATATGATTATAGCTAACTTAGCTATTAGATCAGCTATAAACGGAGTCACCTAGTGCAG” belongs 6190 fluorescence intensity (a.u.); to “CTTATTTCCAATTAATGATCCTTCCGCTTATGTTTTCACACGGAGTCACCTAGTGCAG”, 8500 fluorescence intensity (a.u.); to “CTTCAGTCATTTTCCATCACATCAACCTGTCATACACACACGGAGTCACCTAGTGCAG”, 6110 fluorescence intensity (a.u.).
The value for “TTCGTGATTTATATAAAACATTCCCATGTTGAAACCCTAACGGAGTCACCTAGTGCAG” was 15400 fluorescence intensity (a.u.).
Consider “AAAATTACAGGATTTAAATTCTAGTGGAAATTTGTTTTATCGGAGTCACCTAGTGCAG”, for which the binding signal was 5530 fluorescence intensity (a.u.).
The value for “AGCTGCATATATTGATTGACAGGTGTACCGATTCCTTATGCGGAGTCACCTAGTGCAG” was 54400 fluorescence intensity (a.u.); that for “ACAAGCAAATTATTTAATGAGATTTTATCTAGCTCAATTTCGGAGTCACCTAGTGCAG” was 9560 fluorescence intensity (a.u.); that for “TCCTGACAGAGCAATGAAACGCGGCGGAGGCATTTCGTCGCGGAGTCACCTAGTGCAG” was 5210 fluorescence intensity (a.u.).
The value for “TTTTCTGTTCCTGATTAGCGGCGGAGTGTGCCGTCCTCGCCGGAGTCACCTAGTGCAG” was 6290 fluorescence intensity (a.u.).
As to “GAGAGAAAACATTGATTTTAATTGCGGCTCATTTAGAGGCCGGAGTCACCTAGTGCAG”, the binding signal is 10000 fluorescence intensity (a.u.).
To “GCTGCTGATTTCGTCTCTTTGATCGTGTGTTAGGAGACGCCGGAGTCACCTAGTGCAG” belongs 5180 fluorescence intensity (a.u.).
Turning to “CATCAGTGATAGGCATTTCAATTTAGAGAAAATACAACAACGGAGTCACCTAGTGCAG”, the binding signal is 13900 fluorescence intensity (a.u.).
The value for “ACTTCTATAATATATGTAAATTACCTTTTGGCTTTGCTGACGGAGTCACCTAGTGCAG” was 4500 fluorescence intensity (a.u.); that for “AAAATCTAACAATAATTGATTAAAATAGCCTTTACCTGAACGGAGTCACCTAGTGCAG” was 31000 fluorescence intensity (a.u.).
The value for “ATAAATCTGCCCACCATTTTCTCCCGCTCCAAATGCCCAACGGAGTCACCTAGTGCAG” was 3210 fluorescence intensity (a.u.); that for “CCTGATTTTCCATTCCCACAATCCCACTGTCCTGACGAGTCGGAGTCACCTAGTGCAG” was 27200 fluorescence intensity (a.u.); that for “AAATGTGATTTTATATTCCCTTTTGTATAAATTTGCAACACGGAGTCACCTAGTGCAG” was 6280 fluorescence intensity (a.u.).
The value for “AAATAGTTAATACTTAATTAATCATGCAATAATACAAGTTCGGAGTCACCTAGTGCAG” was 6900 fluorescence intensity (a.u.).
On to “CAGACTATGCAATCACACACTGAATTGCTCCTCTTTCTTTCGGAGTCACCTAGTGCAG”, for which the binding signal is 8990 fluorescence intensity (a.u.).
To “AGATGATAGATCAGAGTGAACATATTTGGACCATTAGATGCGGAGTCACCTAGTGCAG” belongs 6720 fluorescence intensity (a.u.).
To “AATATGATAATCAAATTTAAATAGAGGAAGCAACCCTTTTCGGAGTCACCTAGTGCAG” belongs 4330 fluorescence intensity (a.u.).
The value for “GACCCACTTCAATTAATCGACTAAATTTCAGTTTTCCAAGCGGAGTCACCTAGTGCAG” was 15400 fluorescence intensity (a.u.); that for “CATGACATCGTCATTGACCGTGTCATCGTCAAGATGGATGCGGAGTCACCTAGTGCAG” was 4420 fluorescence intensity (a.u.); that for “GCTGAAATTGCAGATGACCTGATGAACTTCTCCTCTGAAGCGGAGTCACCTAGTGCAG” was 5930 fluorescence intensity (a.u.).
For “GCATCGTGAAGCCAATCAATTTAAATTTCTCATCTCGTCACGGAGTCACCTAGTGCAG”, the binding signal was 20800 fluorescence intensity (a.u.).
With “ATGTGATTGCGCTCCGAGTTCTGCACTTACGCGAACAGTGCGGAGTCACCTAGTGCAG”, the binding signal is 41500 fluorescence intensity (a.u.).
Consider “TTAATTTGTATACGAAACTGATATGTGGGCCCCACGGGGTCGGAGTCACCTAGTGCAG”, for which the binding signal is 14000 fluorescence intensity (a.u.).
The value for “TGGAATGGGTTTTGTAATTAGTGGATATTTAATACCCCAACGGAGTCACCTAGTGCAG” was 3440 fluorescence intensity (a.u.).
To “TTTGGTTGTTATTGATACATTTGACAAAATATATTTGGGACGGAGTCACCTAGTGCAG” belongs 5110 fluorescence intensity (a.u.); to “AAACTTGTTAATTATCAGGAAAACTTTGGCATTTTACATGCGGAGTCACCTAGTGCAG”, 12300 fluorescence intensity (a.u.).
To “TATATTGGTCGATTAATTAAAGACGCAATTACATAATATTCGGAGTCACCTAGTGCAG” belongs 5860 fluorescence intensity (a.u.).
